Out of some 220,000 compounds screened, about 5,700 (2.6%) were called active. The inconclusive results got no clear call from the source; some entries with a clear call stand among them for comparison. The call rests on the fitted dose curve; in most records, active means well fitted inhibition curve with a large enough effect; inconclusive means small, poorly fitted or top-dose-only effect; inactive means no such curve, though single readings can be large or run the other way. Potencies of inconclusive entries are doubtful fits and often do not repeat.
target: Lysine-specific demethylase 5B (Homo sapiens) (UniProt Q9UGL1); assay: Primary screen for KDM5B Histone Demethylases FDH-coupled qHTS; conditions: FDH-coupled NADH fluorescence (FDH is formaldehyde dehydrogenase); activity change, negative = inhibition: at 57.7 µM (top of the series) unless noted; further: nearly all actives have a fitted effect of over 70% in size; on activity change, negative = inhibition: 0% is about no effect
Sequence of UniProt Q9UGL1 (Q9UGL1 whole entry, looked up): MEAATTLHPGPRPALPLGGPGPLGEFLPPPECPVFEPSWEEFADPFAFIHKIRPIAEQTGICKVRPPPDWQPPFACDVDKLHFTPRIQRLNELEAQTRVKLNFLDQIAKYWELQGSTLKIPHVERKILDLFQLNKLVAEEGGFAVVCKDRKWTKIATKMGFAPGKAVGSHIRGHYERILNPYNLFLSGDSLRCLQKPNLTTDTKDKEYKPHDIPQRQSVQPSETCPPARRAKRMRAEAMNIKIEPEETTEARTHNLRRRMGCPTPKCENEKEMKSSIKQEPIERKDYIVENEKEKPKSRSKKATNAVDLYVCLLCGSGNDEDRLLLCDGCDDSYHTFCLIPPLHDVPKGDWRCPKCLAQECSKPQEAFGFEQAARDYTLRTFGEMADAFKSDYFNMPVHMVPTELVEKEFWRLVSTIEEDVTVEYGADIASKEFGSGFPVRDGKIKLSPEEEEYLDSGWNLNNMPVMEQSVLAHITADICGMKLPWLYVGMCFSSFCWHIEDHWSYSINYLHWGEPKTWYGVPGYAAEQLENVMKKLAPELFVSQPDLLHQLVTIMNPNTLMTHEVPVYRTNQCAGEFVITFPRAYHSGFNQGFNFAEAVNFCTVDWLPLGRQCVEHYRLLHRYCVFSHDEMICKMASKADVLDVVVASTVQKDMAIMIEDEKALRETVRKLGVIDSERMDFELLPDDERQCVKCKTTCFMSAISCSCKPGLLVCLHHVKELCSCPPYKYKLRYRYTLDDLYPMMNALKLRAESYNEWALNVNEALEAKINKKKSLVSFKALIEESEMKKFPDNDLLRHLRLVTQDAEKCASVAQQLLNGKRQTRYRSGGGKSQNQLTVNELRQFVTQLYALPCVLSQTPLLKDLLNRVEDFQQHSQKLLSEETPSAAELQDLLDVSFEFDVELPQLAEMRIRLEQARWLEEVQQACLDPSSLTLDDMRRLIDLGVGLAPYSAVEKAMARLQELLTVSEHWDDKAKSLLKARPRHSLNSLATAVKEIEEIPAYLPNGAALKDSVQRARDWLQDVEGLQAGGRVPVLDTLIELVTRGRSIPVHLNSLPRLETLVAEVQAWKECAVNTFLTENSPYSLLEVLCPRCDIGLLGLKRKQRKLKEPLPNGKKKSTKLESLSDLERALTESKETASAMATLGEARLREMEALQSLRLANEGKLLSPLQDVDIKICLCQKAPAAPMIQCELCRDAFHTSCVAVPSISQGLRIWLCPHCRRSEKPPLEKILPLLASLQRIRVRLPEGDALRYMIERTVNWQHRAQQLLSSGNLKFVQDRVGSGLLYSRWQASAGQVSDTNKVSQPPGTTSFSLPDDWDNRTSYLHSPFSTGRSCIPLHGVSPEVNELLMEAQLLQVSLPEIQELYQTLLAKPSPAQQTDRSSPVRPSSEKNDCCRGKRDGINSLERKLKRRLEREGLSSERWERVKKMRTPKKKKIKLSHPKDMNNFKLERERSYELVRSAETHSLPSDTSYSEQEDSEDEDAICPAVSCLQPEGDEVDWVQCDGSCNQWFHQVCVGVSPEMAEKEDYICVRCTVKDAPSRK
Method in brief: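 qHTS format, multiple compound concentrations. Buffer 50 mM HEPES pH 7.5/0.01% Tween-20; 200 nM KDM5BΔAP final; 10 min compound preincubation; substrate-mix levels 12.5 µM peptide, 25 µM α-KG, 0.25 mM NAD⁺; 30 min RT; ΔRFU.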
Potency means the concentration at half of the fitted maximal effect; tags describe the fitted curve by direction and shape.

SMILES	Potency	activity change, negative = inhibition
Cc1ccc(NS(=O)(=O)c2ccc3[nH]c4c(c3c2)CCCC4)c(C)c1	inconclusive: 35.5 µM [inhibitor, single point]	–
Cc1nnc(N2CCCC(C(=O)Nc3ccccc3C(F)(F)F)C2)c2nn(-c3ccccc3)c(C)c12 (stereo not drawn)	inconclusive: 2.82 µM [inhibitor, full curve, poor fit]	–
CCN1c2cc(C(=O)Nc3cccc(F)c3)ccc2C(=O)N2CCCC21 (stereo not drawn)	inconclusive: 17.8 µM [inhibitor, partial curve, poor fit]	–
O=C(NCCn1cccc1-c1nc(-c2ccc3c(c2)OCO3)no1)c1cccc(F)c1	inconclusive: 39.8 µM [inhibitor, partial curve, poor fit]	–
NC(=O)NCC(=O)N1CCC2(CCC(=O)N(Cc3ccccn3)C2)CC1	inactive	–
Cc1cccc(Cn2c(SCCC(=O)O)nc3c2c(=O)[nH]c(=O)n3C)c1	inactive	–
O=C(Nc1ccccc1)c1cc(-c2cccnc2)nc2ccccc12	inactive	–
CCOc1ccccc1N1CC(c2nc3ccccc3n2CCOc2ccc(OC)cc2)CC1=O (stereo not drawn)	inconclusive: 3.16 µM [inhibitor, partial curve, poor fit]	–
CN1c2cc(C(=O)Nc3ccc4c(c3)OCCO4)ccc2C(=O)N2CCCCC21 (stereo not drawn)	inconclusive: 35.5 µM [inhibitor, single point]	–
CCCc1cc(C(=O)N2CCN(C)C3(CCC(=O)N(CC)CC3)C2)n(C)n1 (stereo not drawn)	inconclusive: 28.2 µM [inhibitor, partial curve, poor fit]	–
CCc1ccc(CNC(=O)c2cc3cn(C4CCCC4)cc3s2)cc1	inconclusive: 28.2 µM [inhibitor, partial curve, poor fit]	–
COCCN1C2=C(C(=O)CC(C)(C)C2)C(c2cccc(O)c2)C2=C1CC(C)(C)CC2=O	inconclusive: 28.2 µM [inhibitor, partial curve, poor fit]	–
COc1ccc(OC)c(CNC(=O)c2cc(Br)ccc2O)c1	inconclusive: 25.1 µM [inhibitor, single point]	–
Cc1cn2nc(C(=O)NCc3ccccc3Cl)cc2c(N2CCSCC2)n1	inconclusive: 39.8 µM [inhibitor, partial curve, poor fit]	–
O=C(CN1CCN(C(=O)CCc2ncc(-c3ccc(F)cc3)o2)CC1)Nc1ccccc1Cl	inactive	–
Cc1cccc(C(=O)Nc2c(-c3ccc(F)cc3)nc3ccccn23)c1	–	inconclusive: -36.7% [inhibitor]
COc1ccc(NC(=O)CSc2nc3ccccc3n2CC(=O)N2CCCC(C)C2)cc1 (stereo not drawn)	inactive	–
CCCN1CCc2[nH]cnc2C12CCN(C(=O)c1ccc(CC)s1)CC2	inconclusive: 31.6 µM [inhibitor, partial curve, poor fit]	–
COc1ccc(/C=C/C(=O)c2ccc(C#N)cc2)cc1Br	inactive	–
Cc1cc(CN(C)c2ccc(-c3nc(COc4ccccc4)no3)cn2)on1	active: 35.5 µM	–
O=C(NC/C(=N/NC(=O)c1cccnc1)c1ccccc1)c1ccccc1	inactive	–

SMILES	Potency	activity change, negative = inhibition
CCCCCCC(=O)N(O)C1CC(=O)N(c2ccc(Cl)cc2)C1=O (stereo not drawn)	inconclusive: 25.1 µM [inhibitor, partial curve, poor fit]	–
Cc1ccc(C)c(N2CCN(C(=O)c3cc4c(=O)n(Cc5cccnc5)ccc4nc3C)CC2)c1	inconclusive: 39.8 µM [inhibitor, single point]	–
Cc1cccc(CSc2nc3cccnc3n2Cc2ccc(C(=O)NCc3cccs3)cc2)c1	inconclusive: 35.5 µM [inhibitor, partial curve, poor fit]	–
CCOc1nc(NC(=O)NS(=O)(=O)Oc2cccc(F)c2)nc(-c2ccccc2)n1	inconclusive: 35.5 µM [inhibitor, single point]	–
COc1cccc(-c2ccc3c(N)c(C(=O)Nc4ccc(Cl)cc4F)sc3n2)c1	inconclusive: 1.41 µM [inhibitor, full curve, poor fit]	–
Cc1ccc(C(c2cccnc2)n2cc(-c3cncnc3)nn2)cc1C (stereo not drawn)	inconclusive: 31.6 µM [inhibitor, partial curve, poor fit]	–
CC(C)Cn1c(=O)c2sccc2n2c(CCCC(=O)NCC(C)c3ccccc3)nnc12 (stereo not drawn)	inconclusive: 31.6 µM [inhibitor, partial curve, poor fit]	–
COCCCNC(=O)[C@H]1CCC[C@H]1NC(=O)c1ccc(OC)nc1	inactive	–
CCc1ccc(Nc2nn3c(=O)c4cc5c(cc4nc3s2)OCO5)cc1	–	inconclusive: -30.2% [inhibitor]
O=C(Nc1cccc(Cl)c1Cl)c1cc(S(=O)(=O)N2CCC3(CC2)OCCO3)ccc1F	inconclusive: 25.1 µM [inhibitor, partial curve, poor fit]	–
COc1cc(OC)cc(C(=O)Nc2ccc(S(=O)(=O)N3CCCCC3c3cccnc3)cc2)c1 (stereo not drawn)	inconclusive: 15.8 µM [inhibitor, partial curve, poor fit]	–
O=C(O)c1ccc(OCc2nnnn2-c2ccc(Br)cc2)cc1	inactive	–
O=C(CN1CC2CC(C1)[C@H]1CCCC(=O)N1C2)N1CCN(c2ccccn2)CC1 (stereo partly drawn)	inconclusive: 25.1 µM [inhibitor, single point]	–
O=C(NCCn1cccc1-c1nc(-c2ccc3c(c2)OCO3)no1)c1ccc(Cl)s1	inconclusive: 39.8 µM [inhibitor, single point]	–
COC(=O)[C@@H]1Cc2c([nH]c3ccccc23)[C@H]2C[C@@H](N3CCOCC3)C[C@@H](c3ccc(F)cc3)N21	active: 12.6 µM	–
Cc1ccc(CNC(=O)Nc2ccc(N3CCOCC3)nc2)s1	inconclusive: 28.2 µM [inhibitor, partial curve, poor fit]	–
CCc1ccc2oc(C(=O)Nc3cccc(Cl)c3)cc(=O)c2c1	inactive	–
Cc1ccc(-c2cc(C(=O)N3CCN(C(=O)C4CC4)CC3)c3ccccc3n2)o1	inconclusive: 25.1 µM [inhibitor, partial curve, poor fit]	–
CCc1nnc(NC(=O)C2CC(c3ccccc3)=NO2)s1 (stereo not drawn)	inactive	–
CC(C)(Oc1nn(Cc2cccc(Cl)c2)c2ccccc12)C(=O)NC1CCC(O)CC1 (stereo not drawn)	inconclusive: 22.4 µM [inhibitor, single point]	–
Cc1ccc(Cl)cc1NC(=S)Nn1cnnc1	inconclusive: 5.62 µM [inhibitor, partial curve, poor fit]	–

SMILES	Potency	activity change, negative = inhibition
Cc1noc(C)c1-c1cc2c(cc(C)n2C)c(NCCN(C)C)n1	inconclusive: 28.2 µM [inhibitor, partial curve, poor fit]	–
COc1cccc(C(=O)N2CCC(N3C[C@H](O)C[C@H]3C(=O)N3CCc4ccccc4C3)CC2)c1	inconclusive: 14.1 µM [inhibitor, partial curve, poor fit]	–
CCOC(=O)c1ccc(NC(=O)c2ccc3c(c2)c(C)c(C)n3Cc2ccc(F)cc2)cc1	inconclusive: 5.62 µM [inhibitor, full curve, poor fit]	–
COCCCNc1oc(-c2ccccc2C)nc1C#N	inconclusive: 28.2 µM [inhibitor, partial curve, poor fit]	–
C=CCCC(=O)N1CCOc2c(O)cc(-c3nc4ccccc4s3)cc2C1	inconclusive: 22.4 µM [inhibitor, partial curve, poor fit]	–
Cc1ccc(-c2cnc(CCC(=O)NC3=NCCS3)o2)cc1C	inactive	–
COc1ccccc1CC(=O)NCCn1ccn2nc(-c3ccc(C)c(C)c3)cc2c1=O	inconclusive: 39.8 µM [inhibitor, single point]	–
Cn1c(C(=O)N2CCc3ccccc3C2)cc2c(=O)n3ccccc3nc21	inconclusive: 25.1 µM [inhibitor, partial curve, poor fit]	–
O=C(NCCc1ccc(Cl)cc1)c1nc(-c2cccc(C(F)(F)F)c2)c2cnccn12	active: 31.6 µM	–
CC(C)Cc1ccc2cc(C(=O)O)[nH]c2c1	inconclusive: 25.1 µM [inhibitor, single point]	–
C=C(C)COc1ccc2c(C)c(CCC(=O)N3CCC(C(N)=O)CC3)c(=O)oc2c1	inconclusive: 22.4 µM [inhibitor, partial curve, poor fit]	–
Clc1cccc(CN2CC[C@H](c3nc4ccccc4o3)C2)c1	inconclusive: 31.6 µM [inhibitor, single point]	–
COc1ccc(C(=O)NCCn2cc(SCC(=O)Nc3ccccc3)c3ccccc32)cc1OC	inconclusive: 1.58 µM [inhibitor, full curve, poor fit]	–
CCn1ccc2cc(S(=O)(=O)N3CCC(C(=O)NCCCOC(C)C)CC3)ccc21	inactive	–
O=C(c1ccccn1)N1CCc2nc(C3CC3)nc(-c3ccc(Cl)cc3)c2C1	inconclusive: 44.7 µM [inhibitor, partial curve, poor fit]	–
CCCc1cc(=O)oc2cc(OS(=O)(=O)c3cc(Br)ccc3OCC)ccc12	inconclusive: 25.1 µM [inhibitor, partial curve, poor fit]	–
Cc1ccc(CNc2oc(-c3ccccc3C)nc2C#N)cc1	inconclusive: 22.4 µM [inhibitor, partial curve, poor fit]	–
Cc1cc(C)cc(N(C(=O)c2ccc3c(c2)OCO3)C2C=CS(=O)(=O)C2)c1 (stereo not drawn)	inactive	–
O=C(Nc1nccs1)c1csc(NC2CCCC2)n1	inconclusive: 25.1 µM [inhibitor, partial curve, poor fit]	–
Cc1cc(C)c(NC(=O)c2cc3c(s2)CCCCC3)c(C)c1	inactive	–
COc1ccc(-c2noc(CC3CCN(C(=O)C4CCN(C(=O)c5ccccc5)CC4)CC3)n2)cc1	inactive	–
